The campaign covered roughly 230,000 compounds. About 3,600 (1.6%) were called active. Inconclusive results, whose numbers are uncertain, are shown with a selection of clear calls. Calls come from the whole dose curve; as a rule, active = well fitted inhibition curve with a large enough effect (not every such curve was filed as active); inconclusive = small, poorly fitted or top-dose-only effect, or another doubt; inactive = no such curve, though single readings can be large or run the other way. Where the call is inconclusive, the potency comes from a doubtful curve fit.
These compounds were tested against Lysine-specific demethylase 4E (Homo sapiens) (UniProt B2RXH2) (assay: qHTS Assay for Inhibitors of Human Jumonji Domain Containing 2E (JMJD2E)). Details: JMJD2E catalytic domain, FDH-coupled NADH fluorescence (FDH is formaldehyde dehydrogenase); series mostly up to 57.1 µM; activity change, negative = inhibition: at the top concentration.
Note: nearly all actives have a fitted effect of over 50% in size.
Potency is the fitted concentration of half-maximal effect; tags give direction and shape of the fitted curve.
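Throughout, for activity change, negative = inhibition: 0% = wells with enzyme and -100% = buffer wells without enzyme.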

UniProt B2RXH2, sequence (B2RXH2 whole entry, looked up, the tested form may be a part): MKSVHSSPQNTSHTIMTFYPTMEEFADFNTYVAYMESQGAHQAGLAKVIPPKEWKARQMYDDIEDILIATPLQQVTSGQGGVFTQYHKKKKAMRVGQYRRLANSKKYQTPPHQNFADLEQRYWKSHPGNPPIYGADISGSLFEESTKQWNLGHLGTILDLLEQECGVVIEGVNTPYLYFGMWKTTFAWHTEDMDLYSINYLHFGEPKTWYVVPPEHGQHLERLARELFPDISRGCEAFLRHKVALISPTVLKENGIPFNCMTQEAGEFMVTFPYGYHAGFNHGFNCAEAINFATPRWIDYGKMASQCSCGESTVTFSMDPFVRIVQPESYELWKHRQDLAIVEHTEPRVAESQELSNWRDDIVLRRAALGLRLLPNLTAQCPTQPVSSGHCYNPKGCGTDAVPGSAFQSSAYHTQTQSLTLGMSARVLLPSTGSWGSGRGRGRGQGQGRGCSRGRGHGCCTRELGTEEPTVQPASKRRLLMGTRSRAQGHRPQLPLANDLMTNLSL

| Structure (SMILES) | Potency | activity change, negative = inhibition |
| --- | --- | --- |
| COc1ccc(C(=O)O)cc1NC(=S)NC(=O)c1ccc(-c2ccc(Cl)cc2)o1 | inconclusive: 28.2 µM [inhibitor, single point] |  |
| CN1CCN(C(=O)Nc2cccc(-c3ccccc3)c2)CC1 | inconclusive: 39.8 µM [inhibitor, single point] |  |
| O=S(=O)(c1ccc2ccccc2c1)N1CCN(C2CCN(Cc3ccccc3)CC2)CC1 | inconclusive: 25.1 µM [inhibitor, single point] |  |
| Cn1c(=O)[nH]c(Nc2ccccc2)c([N+](=O)[O-])c1=O |  | inactive: -5.29% |
| O=C(NCc1csc(-c2cccs2)n1)C1CCC1 | inconclusive: 25.1 µM [inhibitor, partial curve] |  |
| CN(C)S(=O)(=O)c1cccc(-n2sc3ccccc3c2=O)c1 | active: 3.55 µM |  |
| CC(C)COc1ccc(C(=O)CCN2CCCCC2)cc1 |  | inactive: 0.0764% |
| Cc1sc2nc(C)n(/N=C/N(C)C)c(=O)c2c1C |  | inactive: 0.902% |
| Cc1cc(Nc2cccc(F)c2)nc(N2CCOCC2)n1 | inconclusive: 39.8 µM [inhibitor, single point] |  |
| C=CCn1c(-c2ccoc2C)n[nH]c1=S |  | inactive: -9.14% |
| Cc1cc(=O)oc2c(CN3CC(C)OC(C)C3)c(O)c(Cl)cc12 (configuration not stated) | inconclusive: 0.158 µM [inhibitor, full curve, poor fit] |  |
| CCS(=O)(=O)Nc1ccc(C2=NN(C(=S)Nc3ccccc3)C(c3ccco3)C2)cc1 (configuration not stated) | inconclusive: 28.2 µM [inhibitor, single point] |  |
| C1CN(CC23CC4CC(CC(C4)C2)C3)CCO1 | inconclusive: 39.8 µM [inhibitor, single point] |  |
| Cc1cc(C)c2cc(CN(CCN(C)C)C(=O)Nc3ccccc3Cl)c(=O)[nH]c2c1 | inconclusive: 35.5 µM [inhibitor, partial curve] |  |
| Cc1cc(C)c(/C=N/n2c(C)cc(C)c(C#N)c2=O)c(C)c1 |  | inactive: 8.36% |
| CCOC(=O)c1cc2c(nc1N)CCCC2 | inconclusive: 28.2 µM [inhibitor, partial curve] |  |
| Nc1c(C(=O)NCCN2CCOCC2)c2nc3ccccc3nc2n1-c1cccc(F)c1 | inconclusive: 25.1 µM [inhibitor, partial curve] |  |
| CCOc1ccc2c(C)cc(=O)oc2c1OCC | inconclusive: 22.4 µM [inhibitor, partial curve] |  |
| O=c1[nH]c(N/N=C\c2ccc(F)cc2)nc2ccccc12 | inconclusive: 35.5 µM [inhibitor, single point] |  |
| CCOC(=O)c1cnc2nc(SC)nn2c1N | inconclusive: 39.8 µM [inhibitor, single point] |  |
| O=C(N/N=C/c1sc(N2CCOCC2)nc1-c1ccccc1)c1ccc(O)cc1 | inconclusive: 35.5 µM [inhibitor, single point] |  |
| CC1=C(C(=O)OCC2CCCO2)C(c2ccccc2OC(C)C)C2=C(CC(c3ccco3)CC2=O)N1 (configuration not stated) | inconclusive: 31.6 µM [inhibitor, partial curve] |  |
| N#C/C(=C/c1ccc(OCc2ccc(C(=O)O)cc2)c(Br)c1)c1cccc(F)c1 |  | inactive: -11% |

| Structure (SMILES) | Potency | activity change, negative = inhibition |
| --- | --- | --- |
| CNC(=S)N1N=C(c2ccc(C)cc2)CC1c1cc(OC)ccc1OC (configuration not stated) | inconclusive: 39.8 µM [inhibitor, single point] |  |
| COC(=O)NNC1=CC(=O)CC(C)(C)C1 | inconclusive: 35.5 µM [inhibitor, single point] |  |
| Cc1[nH]n(-c2ccccc2)c(=O)c1N=O |  | inactive: -10.4% |
| Cc1cc(C)c2c(CC(=O)O)c(C)[nH]c2c1 | inconclusive: 31.6 µM [inhibitor, partial curve, poor fit] |  |
| CN(C)S(=O)(=O)c1ccc(C(=O)Nc2nc(-c3cccs3)cs2)cc1 | inconclusive: 35.5 µM [inhibitor, single point] |  |
| COc1ccc2[nH]c(=O)c(CN(CCc3ccccc3)Cc3nnnn3CC3CCCO3)cc2c1 (configuration not stated) | inconclusive: 28.2 µM [inhibitor, partial curve] |  |
| O=C(CCCCCn1c(=S)[nH]c2ccc(N3CCOCC3)cc2c1=O)NCc1cccc(Cl)c1 | inconclusive: 31.6 µM [inhibitor, single point] |  |
| CCCC(=O)Nc1ccc2oc(=O)ccc2c1 | inconclusive: 22.4 µM [inhibitor, partial curve] |  |
| NNC(=O)c1cc2cc(OC(F)(F)F)ccc2[nH]1 | inconclusive: 28.2 µM [inhibitor, partial curve] |  |
| N#Cc1cc2sc3nc4ccccc4n3c2cc1C#N |  | inactive: -8.91% |
| Cc1cc(C)nc(NN2C(=O)/C(=C/c3ccccc3)SC2=S)n1 | inconclusive: 28.2 µM [inhibitor, single point] |  |
| Cc1ccccc1OCC(=O)NC(=S)Nc1ccc2c3c(cccc13)CC2 |  | inactive: 4.09% |
| CCOC(=O)C/C(N)=N/NC(=O)c1ccc(Cl)cc1Cl |  | inactive: -0.767% |
| Cc1ccc(-n2nc3cc(C)c(NC(=S)NC(=O)/C=C/c4ccco4)cc3n2)cc1 | inconclusive: 39.8 µM [inhibitor, single point] |  |
| COc1nc(Cl)cn(-c2ccc(C)cc2)c1=O |  | inactive: 8.61% |
| C=CCSc1nnc(-c2cc3c(s2)-c2ccccc2CC3)o1 | inconclusive: 28.2 µM [inhibitor, partial curve] |  |
| COc1cc2c(cc1OC)CN(Cc1cc(=O)oc3cc(C)c(C)cc13)CC2 | inconclusive: 28.2 µM [inhibitor, partial curve] |  |
| O=C(NCc1cc(F)cc2c1OCCO2)[C@H]1C[C@@H]1[C@H](NP(=O)(c1ccccc1)c1ccccc1)c1ccccc1 | inconclusive: 35.5 µM [inhibitor, single point] |  |
| COc1ccc(C(CNC(=O)/C=C/c2c(Cl)nc3ccccn23)N(C)C)cc1 (configuration not stated) | inconclusive: 28.2 µM [inhibitor, single point] |  |
| Cc1ccc(-n2c(N)c(C(=O)Nc3c(C)n(C)n(-c4ccccc4)c3=O)c3nc4ccccc4nc32)cc1 | inconclusive: 35.5 µM [inhibitor, single point] |  |
| C=CC1=C(C)/C(=C/c2[nH]c(Cc3[nH]c(/C=C4\NC(=O)C(C)=C4C=C)c(C)c3CCC(=O)O)c(CCC(=O)O)c2C)NC1=O | inconclusive: 31.6 µM [inhibitor, single point] |  |
| CCCOc1ccc(C(=O)c2nc3c(n2O)CCCCC3)cc1 | inconclusive: 35.5 µM [inhibitor, single point] |  |
| c1csc(-c2cn3c(n2)SCC3)c1 | inconclusive: 35.5 µM [inhibitor, single point] |  |

| Structure (SMILES) | Potency | activity change, negative = inhibition |
| --- | --- | --- |
| COc1cc2c(cc1NC(=O)c1cccc(S(=O)(=O)N(C)C)c1)oc1ccccc12 | inconclusive: 25.1 µM [inhibitor, partial curve] |  |
| COc1ccc(CC(=O)NCC(=O)N/N=C/c2cc(Br)ccc2OC)cc1 | inconclusive: 31.6 µM [inhibitor, single point] |  |
| CCC(=O)Nc1c(C(=O)N2CCN(c3ccccn3)CC2)cnn1-c1ccc(C)cc1 | inconclusive: 39.8 µM [inhibitor, single point] |  |
| C/C(CC(=O)Nc1cccc(Cl)c1Cl)=N\NC(=O)c1ccccc1N | inconclusive: 35.5 µM [inhibitor, partial curve] |  |
| CCOc1cccc(=O)c2c(C)oc(C)c12 | inconclusive: 31.6 µM [inhibitor, single point] |  |
| O=c1c2c(-c3cccs3)csc2ncn1-c1ccccc1 | inconclusive: 31.6 µM [inhibitor, partial curve] |  |
| NC(=O)c1cc(-c2ccccc2)sc1NC(=O)CN1CCCCC1 | inconclusive: 25.1 µM [inhibitor, single point] |  |
| CCn1ccnc1CN(C)Cc1cn[nH]c1-c1ccc(F)cc1F |  | inactive: -12.8% |
| N[C@]1(C(=O)O)CCc2cc(P(=O)(O)O)ccc21 | active: 39.8 µM |  |
| O=C(NCc1ccc(/C=c2\sc3n(c2=O)CCN=3)o1)C(=O)Nc1ccccc1 |  | inactive: 18.6% |
| CNc1nc(-c2ccccc2)cc(C(F)(F)F)c1C#N | inconclusive: 2 µM [inhibitor, partial curve] |  |
| C#CCOCCOCCOCCNc1nc(N2CCN(C(=O)[C@H](Cc3ccc(O)cc3)n3cc([C@@H](N)C(C)CC)nn3)CC2)nc(N2CCN(C(=O)[C@H](Cc3cc4ccccc4[nH]3)n3cc([C@@H](N)CC(C)C)nn3)CC2)n1 (some centres not stated) | inconclusive: 35.5 µM [inhibitor, single point] |  |
| COc1cccc2cc(C(=O)N(Cc3cccs3)CC3CCCO3)c(=O)oc12 (configuration not stated) | inconclusive: 39.8 µM [inhibitor, single point] |  |
| CCSC1=N/C(=C/c2ccsc2)C(=O)N1c1ccccc1 | inconclusive: 31.6 µM [inhibitor, single point] |  |
| O=C(CCl)NCCN1C(=O)S/C(=C\c2cccnc2)C1=O |  | inactive: -4.46% |
| CC1CCCN(c2nc3ccsc3c(=O)s2)C1 (configuration not stated) | inconclusive: 39.8 µM [inhibitor, single point] |  |
| Cn1c(SCC(=O)N2CCCC2)nnc1-c1ccc(S(=O)(=O)N2CCCC2)cc1 | inconclusive: 31.6 µM [inhibitor, single point] |  |
| CCOC(=O)C1CCN(CC(=O)Nc2ccc(OC)c(Cl)c2)CC1 | inconclusive: 22.4 µM [inhibitor, single point] |  |
| Cc1ccc(C(=O)OCC(=O)Nc2sccc2C(N)=O)cc1NC(=O)c1ccco1 | inconclusive: 35.5 µM [inhibitor, single point] |  |
| CCCc1ccc(-c2cc(C(=O)NC3=NCCS3)c3ccccc3n2)cc1 | inconclusive: 39.8 µM [inhibitor, single point] |  |
| CCOC(=O)C1=C(C)NC(=O)NC1c1ccc(N2CCC(c3ccccc3)=N2)cc1 (configuration not stated) | inconclusive: 25.1 µM [inhibitor, partial curve] |  |

— PubChem BioAssay AID2147 (National Center for Advancing Translational Sciences (NCATS), 2009)
